Laboratory results published in the supplement of paper PMC10037445.
The full ranking holds about 2,900 compounds; the median of “NF-kB SEAP reporter activity, fold change vs agonist alone” is about 0.99, and the highest 2% start at about 2.6. This is one part of the list.

Legend:
[1] = tested on: RAW-Dual; experiment: NF-kB SEAP reporter activity, fold change vs agonist alone; higher = enhanced NF-kB activity; conditions: cytotoxicity flag (confluency mask): not cytotoxic
Procedure, shortened: (§1)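 Library stock was pin-tooled at 50 nL into 384-well plates of RAW-Dual macrophages (50,000 cells/well, DMEM), followed 1 h later by a PRR agonist, and the cells were kept at 37 °C, 5% CO2. Supernatant collected after 20 hours was read for IRF by QuantiLuc luminescence and for NF-κB by QuantiBlue absorbance at 620 nm. Reporter activity is fold change over agonist-alone wells, and a well counted as cytotoxic when its IncuCyte confluency was below 70% of agonist controls in both mask sets.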

[2] = tested on: RAW-Dual; experiment: NF-kB SEAP reporter activity, fold change vs agonist alone; cytotoxicity flag (confluency mask): not cytotoxic; higher = enhanced NF-kB activity
Procedure, shortened: as §1

[3] = library stock concentration (final ~1000-fold dilution): 10 mM, agonist: Imiquimod (TLR7) […]
[4] = library stock concentration (final ~1000-fold dilution): 10 mM, agonist: MPLA (TLR4) […]
[5] = agonist: ODN 1826 (TLR9) 0.5 ug/mL
[6] = agonist: Pam2CSK4 (TLR2/6) 0.1 ug/mL
[7] = agonist: Pam3CSK4 (TLR2/1) 0.1 ug/mL

CCCC(NC(=O)/C(C#N)=C/c1cccc(Br)n1)c1ccccc1 (stereo not given)
NF-kB SEAP reporter activity [1, 3]: 0.971 | NF-kB SEAP reporter activity [1, 4]: 0.962

CCCC(NC(=O)/C(C#N)=C/c1cccc(Br)n1)c1ccccc1 (stereo not given) (library stock concentration (final ~1000-fold dilution): 10 mM)
NF-kB SEAP reporter activity ([2]; agonist: LPS (TLR4) 0.1 ug/mL): 0.416 | NF-kB SEAP reporter activity [2, 5]: 0.925 | NF-kB SEAP reporter activity [2, 6]: 0.387 | NF-kB SEAP reporter activity [2, 7]: 0.838

COC(=O)NC(C(=O)N1CCCC1C(=O)Nc1ccc(C2CCC(c3ccc(NC(=O)C4CCCN4C(=O)C(NC(=O)OC)C(C)C)cc3)N2c2ccc(C(C)(C)C)cc2)cc1)C(C)C (stereo not given) (library stock concentration (final ~1000-fold dilution): 10 mM)
NF-kB SEAP reporter activity ([2]; agonist: LPS (TLR4) 0.1 ug/mL): 1.35 | NF-kB SEAP reporter activity [2, 5]: 0.585 | NF-kB SEAP reporter activity [2, 6]: 0.487 | NF-kB SEAP reporter activity [2, 7]: 0.58

COC(=O)NC(C(=O)N1CCCC1C(=O)Nc1ccc(C2CCC(c3ccc(NC(=O)C4CCCN4C(=O)C(NC(=O)OC)C(C)C)cc3)N2c2ccc(C(C)(C)C)cc2)cc1)C(C)C (stereo not given)
NF-kB SEAP reporter activity [1, 4]: 0.983

CC1CCC(C(=O)N(c2cc(C#CC(C)(C)C)sc2C(=O)O)C2CCC(O)CC2)CC1 (stereo not given)
NF-kB SEAP reporter activity [1, 3]: 0.483 | NF-kB SEAP reporter activity [1, 4]: 0.705

CC1CCC(C(=O)N(c2cc(C#CC(C)(C)C)sc2C(=O)O)C2CCC(O)CC2)CC1 (stereo not given) (library stock concentration (final ~1000-fold dilution): 10 mM)
NF-kB SEAP reporter activity ([2]; agonist: LPS (TLR4) 0.1 ug/mL): 1.12 | NF-kB SEAP reporter activity [2, 5]: 0.987 | NF-kB SEAP reporter activity [2, 6]: 0.998 | NF-kB SEAP reporter activity [2, 7]: 0.917

CN(C)C1CCN(C(=O)c2ccc(NC(=O)Nc3ccc(-c4nc(N5CCOCC5)nc(N5CCOCC5)n4)cc3)cc2)CC1
NF-kB SEAP reporter activity ([1]; library stock concentration (final ~1000-fold dilution): 2 mM, agonist: Imiquimod (TLR7) […]): 0.647 | NF-kB SEAP reporter activity ([1]; library stock concentration (final ~1000-fold dilution): 2 mM, agonist: MPLA (TLR4) […]): 1.52

CN(C)C1CCN(C(=O)c2ccc(NC(=O)Nc3ccc(-c4nc(N5CCOCC5)nc(N5CCOCC5)n4)cc3)cc2)CC1 (library stock concentration (final ~1000-fold dilution): 2 mM)
NF-kB SEAP reporter activity ([2]; agonist: LPS (TLR4) 0.1 ug/mL): 1.19 | NF-kB SEAP reporter activity [2, 5]: 0.965 | NF-kB SEAP reporter activity [2, 6]: 0.404 | NF-kB SEAP reporter activity [2, 7]: 0.679

Cc1ccc(Nc2cc(NC3CCCCC3N)nnc2C(N)=O)nc1C (stereo not given)
NF-kB SEAP reporter activity [1, 3]: 1.36 | NF-kB SEAP reporter activity [1, 4]: 2.35

Cc1ccc(Nc2cc(NC3CCCCC3N)nnc2C(N)=O)nc1C (stereo not given) (library stock concentration (final ~1000-fold dilution): 10 mM)
NF-kB SEAP reporter activity ([2]; agonist: LPS (TLR4) 0.1 ug/mL): 1.51 | NF-kB SEAP reporter activity [2, 5]: 0.188 | NF-kB SEAP reporter activity [2, 6]: 1.08 | NF-kB SEAP reporter activity [2, 7]: 1.29

CCOC(=O)c1ccc(N)cc1.Cl (library stock concentration (final ~1000-fold dilution): 10 mM)
NF-kB SEAP reporter activity ([2]; agonist: LPS (TLR4) 0.1 ug/mL): 1.21 | NF-kB SEAP reporter activity [2, 5]: 0.914 | NF-kB SEAP reporter activity [2, 6]: 1.17 | NF-kB SEAP reporter activity [2, 7]: 0.909

CCOC(=O)c1ccc(N)cc1.Cl
NF-kB SEAP reporter activity [1, 4]: 1.12

CC(C)[N+]1(C)C2CCC1CC(OC(=O)C(CO)c1ccccc1)C2 (stereo not given)
NF-kB SEAP reporter activity [1, 3]: 0.881 | NF-kB SEAP reporter activity [1, 4]: 1.04

CC(C)[N+]1(C)C2CCC1CC(OC(=O)C(CO)c1ccccc1)C2 (stereo not given) (library stock concentration (final ~1000-fold dilution): 10 mM)
NF-kB SEAP reporter activity ([2]; agonist: LPS (TLR4) 0.1 ug/mL): 0.97 | NF-kB SEAP reporter activity [2, 5]: 1.02 | NF-kB SEAP reporter activity [2, 6]: 1.05 | NF-kB SEAP reporter activity [2, 7]: 1.16

C=CC(=O)N1CC/C(=C\c2ccc(F)c([N+](=O)[O-])c2)C(=O)/C(=C/c2ccc(F)c([N+](=O)[O-])c2)C1
NF-kB SEAP reporter activity [1, 3]: 0.151 | NF-kB SEAP reporter activity [1, 4]: 0.267

C=CC(=O)N1CC/C(=C\c2ccc(F)c([N+](=O)[O-])c2)C(=O)/C(=C/c2ccc(F)c([N+](=O)[O-])c2)C1 (library stock concentration (final ~1000-fold dilution): 10 mM)
NF-kB SEAP reporter activity ([2]; agonist: LPS (TLR4) 0.1 ug/mL): 0.222 | NF-kB SEAP reporter activity [2, 5]: 0.198 | NF-kB SEAP reporter activity [2, 6]: 0.0699 | NF-kB SEAP reporter activity [2, 7]: 0.144

O=C(Nc1c(Cl)cncc1Cl)c1ccc(OC(F)F)c(OCC2CC2)c1
NF-kB SEAP reporter activity [1, 3]: 1.6 | NF-kB SEAP reporter activity [1, 4]: 1.38

O=C(Nc1c(Cl)cncc1Cl)c1ccc(OC(F)F)c(OCC2CC2)c1 (library stock concentration (final ~1000-fold dilution): 10 mM)
NF-kB SEAP reporter activity ([2]; agonist: LPS (TLR4) 0.1 ug/mL): 1.73 | NF-kB SEAP reporter activity [2, 5]: 2.39 | NF-kB SEAP reporter activity [2, 6]: 1.32 | NF-kB SEAP reporter activity [2, 7]: 1.62

CCOC(=O)OC(C)OC1=C(C(=O)Nc2ccccn2)N(C)S(=O)(=O)c2ccccc21 (stereo not given)
NF-kB SEAP reporter activity [1, 3]: 0.924 | NF-kB SEAP reporter activity [1, 4]: 1.04

CCOC(=O)OC(C)OC1=C(C(=O)Nc2ccccn2)N(C)S(=O)(=O)c2ccccc21 (stereo not given) (library stock concentration (final ~1000-fold dilution): 10 mM)
NF-kB SEAP reporter activity ([2]; agonist: LPS (TLR4) 0.1 ug/mL): 1.33 | NF-kB SEAP reporter activity [2, 5]: 1.08 | NF-kB SEAP reporter activity [2, 6]: 1.3 | NF-kB SEAP reporter activity [2, 7]: 1.08

Cc1cccc(-c2[nH]c(CNc3ccccc3F)nc2-c2ccc3ncnn3c2)n1 (library stock concentration (final ~1000-fold dilution): 10 mM)
NF-kB SEAP reporter activity ([2]; agonist: LPS (TLR4) 0.1 ug/mL): 2.41 | NF-kB SEAP reporter activity [2, 5]: 1.3 | NF-kB SEAP reporter activity [2, 6]: 1.12 | NF-kB SEAP reporter activity [2, 7]: 1.15

Cc1cccc(-c2[nH]c(CNc3ccccc3F)nc2-c2ccc3ncnn3c2)n1
NF-kB SEAP reporter activity [1, 3]: 1.12 | NF-kB SEAP reporter activity [1, 4]: 1.62

C[C@@H]1O[C@@H](O[C@H]2[C@H](Oc3cc(O)c(C(=O)CCc4ccc(O)cc4)c(O)c3)O[C@H](CO)[C@@H](O)[C@@H]2O)[C@H](O)[C@H](O)[C@H]1O
NF-kB SEAP reporter activity [1, 3]: 0.925 | NF-kB SEAP reporter activity [1, 4]: 0.994

C[C@@H]1O[C@@H](O[C@H]2[C@H](Oc3cc(O)c(C(=O)CCc4ccc(O)cc4)c(O)c3)O[C@H](CO)[C@@H](O)[C@@H]2O)[C@H](O)[C@H](O)[C@H]1O (library stock concentration (final ~1000-fold dilution): 10 mM)
NF-kB SEAP reporter activity ([2]; agonist: LPS (TLR4) 0.1 ug/mL): 1.12 | NF-kB SEAP reporter activity [2, 5]: 1.1 | NF-kB SEAP reporter activity [2, 6]: 1.13 | NF-kB SEAP reporter activity [2, 7]: 1.1
